The text below walks through data of US20210032308A1 (published 2021).

Read-outs that look alike come from different tables or passages of the source.

What all share (assay): SPR
(In general: Surface plasmon resonance follows binding to a sensor surface in real time, without labels.)

The target of assay [1] is T1, recombinant human CD2 (biotinylated) (UniProt P06729 25-209, biotinylated (site not stated)).
T1 chain: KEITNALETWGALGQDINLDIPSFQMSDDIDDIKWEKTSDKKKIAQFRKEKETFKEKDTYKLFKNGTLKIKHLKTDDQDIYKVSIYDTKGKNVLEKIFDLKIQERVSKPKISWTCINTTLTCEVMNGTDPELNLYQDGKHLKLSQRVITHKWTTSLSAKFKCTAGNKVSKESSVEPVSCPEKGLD

The target in assay [2] is T1, recombinant human CD2 (biotinylated).
The target is the same in assay [3].
The target of assay [4] is T2, recombinant cynomolgus CD2 (cynomolgus monkey, UniProt Q6SZ61 25-209, biotinylated (site not stated)).
T2 chain: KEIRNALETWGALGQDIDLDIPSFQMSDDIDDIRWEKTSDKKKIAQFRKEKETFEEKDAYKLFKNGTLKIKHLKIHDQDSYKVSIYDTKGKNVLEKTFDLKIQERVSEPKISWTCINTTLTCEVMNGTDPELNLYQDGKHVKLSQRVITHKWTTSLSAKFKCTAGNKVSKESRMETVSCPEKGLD

B1: M1d1 LFA3-Fc fusion protein (Fc fusion)
chain: FSQQIYGVVYGNVTFHVPSNVPLKEVLWKKQKDKVVEFENSEVRAFSSFKNRVYLDTVSGSLTIYNLTSSDEDEYEMESPNITDTFKFFLYVL[human IgG1 Fc not shown]
Consider B1, for which the Kd in assay [1] and in assay [2] was 730 nM in each case.

B2: M1-d3 Fc fusion protein (Fc fusion)
chain: FSQQIYGVVYGNVTFHVPSNVPLKEVLWKKQKDKVVEFENSEVRAFSSFKNRVYLDTVSGSLTIYNLTSSDEDEYEMESPNITDTFKFFLYVLESLPS[human IgG1 Fc not shown]
As for B2, the Kd in assay [3] was 1040 nM; in assay [4], 1080 nM.

The Kd is a measure of binding affinity in units of concentration.
